Test results reported in publication PMC9640673.
These are yes or no findings as the source states them, for the method shown. For some assays here: Binding seen in cells or lysates may run through a third protein. Some entries that bind do so weakly or less than the wild type. For some assays here: Where a sequence is shown, tags or fusion partners need not be part of it. Blank lines part the entries; values can stand above or below the molecule they belong to.

Amino acid sequences for entries named in this document (tags omitted).
UniProt P60842: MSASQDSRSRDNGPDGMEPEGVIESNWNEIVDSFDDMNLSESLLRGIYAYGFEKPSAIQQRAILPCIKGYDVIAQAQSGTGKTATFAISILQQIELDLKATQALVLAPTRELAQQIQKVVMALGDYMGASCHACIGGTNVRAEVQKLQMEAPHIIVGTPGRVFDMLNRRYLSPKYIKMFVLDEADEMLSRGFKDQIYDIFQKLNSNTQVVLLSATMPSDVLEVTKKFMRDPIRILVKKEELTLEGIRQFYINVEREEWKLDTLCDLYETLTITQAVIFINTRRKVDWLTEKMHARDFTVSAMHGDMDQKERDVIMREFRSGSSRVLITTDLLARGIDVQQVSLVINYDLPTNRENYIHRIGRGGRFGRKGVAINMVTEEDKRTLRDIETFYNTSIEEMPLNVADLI

Tests used:
[1] = biological target: T1, GST-SRSF3 RS domain (84-164) (human) (UniProt P84103); test: pull-down; GST-SRSF3 proteins immobilised on Glutathione Sepharose 4B beads, incubated with Hisx6-eIF4A1 overnight at 4 °C; washed five times with 20 mM HEPES pH 7.6, 150 mM NaCl, 5 mM MgCl2, 1% Triton X-100, 5% glycerol; western blot; both purified
T1 sequence: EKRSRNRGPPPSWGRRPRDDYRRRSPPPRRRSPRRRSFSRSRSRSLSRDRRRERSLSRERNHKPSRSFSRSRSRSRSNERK

[2] = biological target: T2, GST-SRSF3 full-length (human) (UniProt P84103); test: as above
T2 sequence: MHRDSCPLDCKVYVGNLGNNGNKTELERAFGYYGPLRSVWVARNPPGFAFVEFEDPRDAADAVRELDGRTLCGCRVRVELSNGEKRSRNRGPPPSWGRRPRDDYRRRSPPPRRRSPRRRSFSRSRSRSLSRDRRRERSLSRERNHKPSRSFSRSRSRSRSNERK

[3] = biological target: T3, GST-SRSF3 RRM domain (1-83) (human) (UniProt P84103); test: as above
T3 sequence: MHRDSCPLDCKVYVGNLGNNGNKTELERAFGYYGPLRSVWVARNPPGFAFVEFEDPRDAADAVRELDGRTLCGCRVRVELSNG

[4] = biological target: T4, Serine/arginine-rich splicing factor 3 (SRSF3), endogenous (human (endogenous in HEK293T and SW480)) (UniProt P84103); test: co-IP; SW480 cells serum-starved for 72 h; cell extracts immunoprecipitated with anti-SRSF3 antibody
T4 sequence: T2 sequence

[5] = biological target: T5, FLAG-tagged SRSF3 RRM domain (1-83) (human) (UniProt P84103); test: co-IP; lysates of HEK293T cells transfected with Flag-tagged SRSF3 FL, RRM or RS; immunoprecipitated with anti-Flag antibody, western blot with anti-eIF4A
T5 sequence: T3 sequence

[6] = biological target: T6, FLAG-tagged SRSF3 RS domain (84-164) (human) (UniProt P84103); test: as above
T6 sequence: T1 sequence

[7] = biological target: T7, FLAG-tagged SRSF3 full-length (human) (UniProt P84103); test: as above
T7 sequence: T2 sequence

[8] = biological target: translational initiation factor eIF4A1, endogenous (human (endogenous in HEK293T and SW480)) (UniProt P60842); test: co-IP; cytoplasmic extracts of HEK293T cells (anti-eIF4A1 antibody) and SW480 cells (anti-SRSF3 or anti-eIF4A1 antibody), protein G-Sepharose beads, western blot; endogenous proteins

binding [1]: binds
binding [2]: binds
binding [3]: no binding
Molecule: recombinant Hisx6-eIF4A1 (from UniProt P60842 1-406)

binding [5]: no binding
binding [6]: binds
binding [7]: binds
Molecule: translational initiation factor eIF4A1, endogenous (from UniProt P60842 1-406)
binding [4]: no binding (condition: serum starvation for 72 h)

binding [8]: binds
B1: Serine/arginine-rich splicing factor 3 (SRSF3), endogenous (protein, UniProt P84103 1-164)
chain: T2 sequence
